# Assay results from a collection of fitness landscapes (doi:10.1016/j.celrep.2020.107928).
# The full ranking holds about 81,000 sequences; the median of “one-hybrid fitness for binding NBS DNA” is about -0.1, and the highest 2% start at about 0.36. The list shows a part of the results.
# B1: Caulobacter ParB omega fusion; a variant is named by its letters at X, in order, B8GW30 (parent)
# chain: MESVVVGEPGMSEGRRGLGRGLSALLGEVDAAPAQAPGEQLGGSREAPIEILQRNPDQPRRTFREEDLEDLSNSIREKGVLQPILVRPSPDTAGEYQIVAGERAWRAAQRAGLKTVPIMVRELDDLAVLEIGIIENVQRADLNVLEEALSYKVLMEKFERTQENIAQTIGKSXSHVANXMRLLXLPDEVQSYLVSGELTAXHARAIAAAADPVALAKQIIEGGLSVRETEALARKAPNLSAGKSKGGRPPRVKDTDTQALESDLSSVLGLDVSIDHRGSTGTLTITYATLEQLDDLCNRLTRGI
# Variants of: B1
# Experiment: one-hybrid fitness for binding NBS DNA (the Noc-binding site; scaled: cognate 1, non-cognate 0); higher = stronger binding
# Details: with NBS DNA site
# Summary of the method: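 Fitness here means the log change in variant-to-wild-type read ratio between plasmids sequenced before and after selection. That scale was set so cognate equals 1 and non-cognate equals 0. The selection was a bacterial one-hybrid screen of Caulobacter ParB libraries, four specificity codons randomised, in E. coli USO carrying a HIS3 reporter with the site 19 bp from the promoter, grown 48 hours at 37°C on M9-minus-histidine with 0.1 mM IPTG and 5 mM 3-AT.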
row,Variant,one-hybrid fitness for binding NBS DNA
1,SYTR,≤ 0.2
2,FLKT,≤ 0.2
3,DACS,≤ 0.2
4,PVTL,≤ 0.2
5,CIYT,≤ 0.2
6,TRAG,≤ 0.2
7,GETA,≤ 0.2
8,YVVS,≤ 0.2
9,DRPI,≤ 0.2
10,ITLT,≤ 0.2
11,ALAC,≤ 0.2
12,SKNS,≤ 0.2
13,KMLP,≤ 0.2
14,TFLV,≤ 0.2
15,NHSS,≤ 0.2
16,CYGC,≤ 0.2
17,RQVP,≤ 0.2
18,PPHI,≤ 0.2
19,GNRT,≤ 0.2
20,SDNI,≤ 0.2
21,YHWW,≤ 0.2
22,IMII,≤ 0.2
23,GCQT,≤ 0.2
24,RGEE,≤ 0.2

row,Variant,one-hybrid fitness for binding NBS DNA
1,KTNG,≤ 0.2
2,RDKR,≤ 0.2
3,HQHW,≤ 0.2
4,NADC,≤ 0.2
5,QYIG,≤ 0.2
6,REQR,≤ 0.2
7,CMRA,≤ 0.2
8,SMAG,≤ 0.2
9,SIIS,≤ 0.2
10,AVFR,≤ 0.2
11,KNCR,≤ 0.2
12,YNTC,≤ 0.2
13,KPIL,≤ 0.2
14,EAET,≤ 0.2
15,RRDC,0.318
16,RNFV,≤ 0.2
17,HNDR,≤ 0.2
18,QKLG,≤ 0.2
19,EAFR,≤ 0.2
20,GQFS,≤ 0.2
21,WKSD,≤ 0.2
22,HWKS,≤ 0.2
23,LGSL,≤ 0.2
24,ETNW,≤ 0.2

row,Variant,one-hybrid fitness for binding NBS DNA
1,IKRC,≤ 0.2
2,QKGG,≤ 0.2
3,PVGK,≤ 0.2
4,VKTQ,≤ 0.2
5,PFTL,≤ 0.2
6,LRSN,≤ 0.2
7,IHTA,≤ 0.2
8,FEMV,≤ 0.2
9,QHRI,0.295
10,DRET,≤ 0.2
11,RTSA,0.231
12,QALM,≤ 0.2
13,HETR,≤ 0.2
14,GTNT,≤ 0.2
15,RTML,≤ 0.2
16,NKIR,≤ 0.2
17,NHVY,≤ 0.2
18,NPRA,≤ 0.2
19,PMQT,≤ 0.2
20,VLGN,≤ 0.2
21,QERR,0.245
22,RFNN,≤ 0.2
23,VAPR,≤ 0.2
24,QSQC,≤ 0.2

row,Variant,one-hybrid fitness for binding NBS DNA
1,REMV,≤ 0.2
2,KSSQ,≤ 0.2
3,GSGT,≤ 0.2
4,LQVK,≤ 0.2
5,YKRM,≤ 0.2
6,IEPD,≤ 0.2
7,RFSV,≤ 0.2
8,HAGA,≤ 0.2
9,DWTS,≤ 0.2
10,WYGC,≤ 0.2
11,CPPP,≤ 0.2
12,GSIC,≤ 0.2
13,PARK,≤ 0.2
14,WPHS,≤ 0.2
15,KPDS,≤ 0.2
16,SIYT,≤ 0.2
17,IRTG,≤ 0.2
18,NLNG,≤ 0.2
19,FIRV,≤ 0.2
20,QVWM,≤ 0.2
21,IKSG,≤ 0.2
22,PCFV,≤ 0.2
23,YLWC,≤ 0.2
24,AYKR,≤ 0.2

row,Variant,one-hybrid fitness for binding NBS DNA
1,RWFG,≤ 0.2
2,FDYG,≤ 0.2
3,GLPN,≤ 0.2
4,MFCL,≤ 0.2
5,GCMA,≤ 0.2
6,PFKD,≤ 0.2
7,NEVT,≤ 0.2
8,SAII,≤ 0.2
9,QMYI,≤ 0.2
10,WYEF,0.201
11,EEFL,≤ 0.2
12,QFRL,≤ 0.2
13,SVKT,≤ 0.2
14,IHKS,≤ 0.2
15,KTCE,≤ 0.2
16,PTHI,≤ 0.2
17,LSSP,≤ 0.2
18,GATF,≤ 0.2
19,HWII,≤ 0.2
20,LMDS,≤ 0.2
21,VQMF,≤ 0.2
22,KKQY,≤ 0.2
23,YPFW,≤ 0.2
24,YAIL,≤ 0.2

row,Variant,one-hybrid fitness for binding NBS DNA
1,MMKM,≤ 0.2
2,GSKL,≤ 0.2
3,IYIR,≤ 0.2
4,CACK,≤ 0.2
5,PSYL,≤ 0.2
6,KIQT,≤ 0.2
7,VCTP,≤ 0.2
8,CKNR,≤ 0.2
9,TVQR,≤ 0.2
10,RQWE,≤ 0.2
11,RLRC,0.348
12,KGWR,≤ 0.2
13,PWYT,≤ 0.2
14,KAPD,≤ 0.2
15,NDGT,≤ 0.2
16,AVMW,≤ 0.2
17,TYHT,≤ 0.2
18,RCPN,≤ 0.2
19,TYGS,≤ 0.2
20,TITF,≤ 0.2
21,HYTK,≤ 0.2
22,PLIS,≤ 0.2
23,RIWA,≤ 0.2
24,EPDY,≤ 0.2

row,Variant,one-hybrid fitness for binding NBS DNA
1,VPLN,≤ 0.2
2,VMEC,≤ 0.2
3,EYGT,≤ 0.2
4,SNWF,≤ 0.2
5,YLSG,≤ 0.2
6,GRPS,≤ 0.2
7,WMDN,≤ 0.2
8,PYQM,≤ 0.2
9,RRKF,0.484
10,IHSV,≤ 0.2
11,SCDN,≤ 0.2
12,GTKL,≤ 0.2
13,PQLQ,≤ 0.2
14,VPHW,≤ 0.2
15,IQQI,≤ 0.2
16,LPLP,≤ 0.2
17,QKTL,≤ 0.2
18,GGKA,≤ 0.2
19,NTDN,≤ 0.2
20,PHPC,≤ 0.2
21,KMCG,≤ 0.2
22,GGWD,≤ 0.2
23,AGMD,≤ 0.2
24,MEPD,≤ 0.2

row,Variant,one-hybrid fitness for binding NBS DNA
1,FSDF,≤ 0.2
2,SAPN,≤ 0.2
3,YRPC,≤ 0.2
4,VVYR,≤ 0.2
5,AWQW,≤ 0.2
6,CTQM,≤ 0.2
7,PHHQ,≤ 0.2
8,TCII,≤ 0.2
9,RLDM,≤ 0.2
10,RQSY,≤ 0.2
11,TLGA,≤ 0.2
12,QPTN,≤ 0.2
13,RNRY,≤ 0.2
14,CRVA,≤ 0.2
15,EDKS,≤ 0.2
16,RGHD,≤ 0.2
17,QAPD,≤ 0.2
18,RMRN,0.25
19,CMAS,≤ 0.2
20,GGPS,≤ 0.2
21,HTAM,≤ 0.2
22,CMTL,≤ 0.2
23,RSRR,0.664
24,RLGE,≤ 0.2

row,Variant,one-hybrid fitness for binding NBS DNA
1,HLMC,≤ 0.2
2,LFLF,≤ 0.2
3,SVPR,≤ 0.2
4,RYGY,≤ 0.2
5,RCHV,≤ 0.2
6,VNAY,≤ 0.2
7,PGVG,≤ 0.2
8,HTEV,≤ 0.2
9,QVRK,0.212
10,MKSY,≤ 0.2
11,APNA,≤ 0.2
12,ISTD,≤ 0.2
13,VVIG,≤ 0.2
14,TWPT,≤ 0.2
15,MQLE,≤ 0.2
16,VRFI,≤ 0.2
17,LILF,≤ 0.2
18,HHVG,≤ 0.2
19,TAEV,≤ 0.2
20,IREN,≤ 0.2
21,RICM,≤ 0.2
22,NQTE,≤ 0.2
23,ERYR,≤ 0.2
24,TCHE,≤ 0.2

row,Variant,one-hybrid fitness for binding NBS DNA
1,IVGR,≤ 0.2
2,SYNQ,≤ 0.2
3,MVEF,≤ 0.2
4,AMWM,≤ 0.2
5,VDEY,≤ 0.2
6,QRKR,1.08
7,RSNA,0.21
8,KERF,≤ 0.2
9,AKTQ,≤ 0.2
10,LNEG,≤ 0.2
11,DGCR,≤ 0.2
12,KQYT,≤ 0.2
13,TSKM,≤ 0.2
14,TPYG,≤ 0.2
15,LREP,≤ 0.2
16,DFFL,≤ 0.2
17,HWTQ,≤ 0.2
18,CKRH,≤ 0.2
19,TLLL,≤ 0.2
20,YYET,≤ 0.2
21,EPVY,≤ 0.2
22,HESC,≤ 0.2
23,QWVS,≤ 0.2
24,TVGA,≤ 0.2

row,Variant,one-hybrid fitness for binding NBS DNA
1,MYKS,≤ 0.2
2,LEET,≤ 0.2
3,FKHA,≤ 0.2
4,YHRT,≤ 0.2
5,QGKH,≤ 0.2
6,IIYW,≤ 0.2
7,SITT,≤ 0.2
8,LTSE,≤ 0.2
9,HVGY,≤ 0.2
10,ISSE,≤ 0.2
11,RSKI,≤ 0.2
12,CHCS,≤ 0.2
13,SAAQ,≤ 0.2
14,CRMW,≤ 0.2
15,AIIG,≤ 0.2
16,SGMY,≤ 0.2
17,SLEW,≤ 0.2
18,PLNV,≤ 0.2
19,TTWC,≤ 0.2
20,QITP,≤ 0.2
21,GSNG,≤ 0.2
22,FVHR,≤ 0.2
23,MATG,≤ 0.2
24,AHER,≤ 0.2

row,Variant,one-hybrid fitness for binding NBS DNA
1,SRYS,≤ 0.2
2,CTTH,≤ 0.2
3,IVAG,≤ 0.2
4,QCND,≤ 0.2
5,DDPK,≤ 0.2
6,CGST,≤ 0.2
7,PGEH,≤ 0.2
8,NEKT,≤ 0.2
9,LTDK,≤ 0.2
10,VIQR,≤ 0.2
11,TWFS,≤ 0.2
12,TLNG,≤ 0.2
13,EVRW,≤ 0.2
14,RLVT,0.236
15,SECG,≤ 0.2
16,AQER,≤ 0.2
17,ISHF,≤ 0.2
18,RKDS,0.412
19,AQDF,≤ 0.2
20,CYQS,≤ 0.2
21,DGTV,≤ 0.2
22,PCQP,≤ 0.2
23,GSMS,≤ 0.2
24,TDKI,≤ 0.2

row,Variant,one-hybrid fitness for binding NBS DNA
1,QRPC,≤ 0.2
2,TKIR,≤ 0.2
3,AGLE,≤ 0.2
4,PQQG,≤ 0.2
5,MIDT,≤ 0.2
6,ASYY,≤ 0.2
7,MHIG,≤ 0.2
8,GRVT,≤ 0.2
9,ARYA,≤ 0.2
10,CRMG,≤ 0.2
11,YTCL,≤ 0.2
12,EERS,≤ 0.2
13,LDTQ,≤ 0.2
14,DGND,≤ 0.2
15,SLFT,≤ 0.2
16,CNMR,≤ 0.2
17,KSEW,≤ 0.2
18,HRTT,≤ 0.2
